The other results are listed elsewhere or left out.

The test system of the test is S. aureus RN4220. Kind of test: growth inhibition call (relative growth <= 0.2). Conditions: 50 µM.
For `CO[C@H]1CN(C)C(=O)c2cc(NS(C)(=O)=O)ccc2OC[C@@H](C)N(C(=O)CN(C)C)C[C@@H]1C`, the growth inhibition call is “inactive”. With `NC(=O)CC1=NC(=O)CS1` the entry was “inactive”; with `C[C@@H]1CN([C@@H](C)CO)C(=O)c2cc(NC(=O)CCCN(C)C)ccc2O[C@@H]1CN(C)S(=O)(=O)c1cccs1`, “inactive”; with `C[C@H]1CN([C@@H](C)CO)S(=O)(=O)c2ccc(Br)cc2O[C@H]1CN(C)S(=O)(=O)c1ccccc1`, “inactive”. For `C[C@H]1CN([C@@H](C)CO)C(=O)Cc2cc(NC(=O)Nc3cccc4ccccc34)ccc2O[C@@H]1CN(C)C(=O)NC1CCCCC1`, the growth inhibition call was “inactive”. Turning to `COc1ccc(-c2ccc3c(c2)O[C@H](CN(C)CC2CCOCC2)[C@H](C)CN([C@@H](C)CO)S3(=O)=O)cc1`, the growth inhibition call was “inactive”.

On to `C[C@H](CO)N1C[C@H](C)[C@H](CN(C)Cc2ccc(C(=O)O)cc2)Oc2ccc(NC(=O)c3ccncc3)cc2CC1=O`, for which the growth inhibition call is “inactive”. In the case of `C[C@@H]1CCCCO[C@@H](CN(C)S(=O)(=O)c2cccs2)[C@@H](C)CN([C@@H](C)CO)C(=O)c2cc(NC(=O)CCC(F)(F)F)ccc2O1` it was “inactive”. With `C[C@H]1CN([C@@H](C)CO)S(=O)(=O)c2ccc(C#Cc3ccccc3)cc2O[C@@H]1CN(C)S(=O)(=O)c1cn(C)cn1` the entry was “inactive”; with `N#CC1(N[C@@H](Cc2ccccc2)c2ccccc2)CCCCCC1`, “inactive”; with `C[C@H](CO)N1C[C@H](C)[C@H](CN(C)C(=O)Nc2ccc(C(F)(F)F)cc2)Oc2c(NS(=O)(=O)c3ccc(F)cc3)cccc2C1=O`, “inactive”. With `O=C(C[C@H]1CC[C@@H](NC(=O)CN2CCOCC2)[C@H](CO)O1)NCCc1ccccc1`, the growth inhibition call was “inactive”. Take `Cc1c(C)c(C)c(CN)c(C)c1C`: the growth inhibition call is “inactive”. As for `COc1cc2c(cc1OC)[C@]1(Nc3c-2c(-c2ccccc2)nn3-c2ccccc2)C(=O)Nc2ccccc21`, the growth inhibition call is “inactive”. For the molecule `C[C@@H]1CN([C@@H](C)CO)S(=O)(=O)c2ccc(-c3cccnc3)cc2O[C@H]1CN(C)C(=O)NC1CCCCC1`, the growth inhibition call is “inactive”.

Source of the values: the antibiotic and cytotoxicity screens of Wong et al. (2023).
